The text below walks through data of patent publication US9717715B2, “Method of combination therapy using an anti-C-Met antibody” (Samsung Electronics Co., Ltd., priority 2013, dated 2017).

For one assay, the target named is human c-Met protein (Homo sapiens, UniProt P08581). Nature of the assay: Biacore binding affinity to c-Met antigen. The following applies: antibody immobilized on CM5 chip, human c-Met 0.39 nM to 100 nM. As to the method: Affinities of the 4 types of antibodies against c-Met antigen prepared in Example 7 were measured by using a Biacore (GE healthcare). About 80 to 110 RU of each antibody was immobilized on a CM5 chip, 9 different concentrations ranging from 0.39 nM to 100 nM of human c-Met protein, as an antigen, were injected at a rate of 30 ul/min to obtain kon values and koff values as shown in Table 3. Then, KD values were calculated based thereon.
Background: SPR reads the build-up and loss of mass on a sensor chip optically.

The subject of assay [1] is MKN45 gastric cancer cells. The assay is described as follows: MKN45 gastric cancer mouse xenograft model. In kind it is in vivo. As to conditions: 0.2 mg/kg-10 mg/kg i.v. once a week, 4 doses. The method, then: (§1) In order to identify anti-cancer effects of the 4 types of antibodies having improved affinities, as prepared in Example 5, a decrease in the size of tumor cells in a brain cancer or gastric cancer mouse xenograft model transplanted with U87MG brain cancer cells (Korean Cell Line Bank) or MKN45 gastric cancer cells (Japanese Cancer Research Bank, JCRB, Tokyo, Japan) was observed when the antibodies having improved affinities were administered thereto in vivo.
(§2) For MKN45 model (FIG. 6A), 5×10^6 MKN45 cells (100 uL) were administered via subcutaneous injection to 6 week-old male BALB/C nude mice (SLAC Laboratoris, Shanghai, China). For U87MG model (FIG. 6B), 2.5×10^6 U87MG cells were administered. One wee after the tumor inoculation, the mice were randomized into Vehicle (PBS) or huAbF46-H4-A1 treatment groups at a various doses (0.2 mg/kg-10 mg/kg). Each group consisted of 15 mice. For MKN45 model, each treatment was given once a week via intravenous route, for total of 4 doses. For U87MG model, the treatment was given every 10 days for total of 3 doses. […]

For assay [2], the system named is NCI-H441 human lung cancer cells. The assay is described as follows: BrdU assay (agonism / safety). In kind it is cell-based. The following applies: 10 ug/ml. The method, then: A BrdU assay was performed using the antibodies having improved affinities in order to evaluate safety of the antibodies. NCI-H441 (ATCC Cat. # HTB-174), human lung cancer cells, were suspended in a RPMI 1640 medium (Gibco) (2×10^5 cell/ml) to prepare a suspension, and about 100 ul of the suspension was introduced to each well of a 96-well tissue culture plate (Corning, Lowell, Mass.). The suspension was incubated at 37° C. in 5% (v/v) CO2 conditions for 24 hours, and then the medium was completely removed and replaced with a RPMI 1640 diluted with the antibody. After incubating the suspension at 37° C. in 5% (v/v) CO2 conditions for 21 hours, 5-bromo-2′-deoxyuridine (BrdU) was added and the BrdU assay (Roche, Indianapolis, Ind.) was performed after a further 3 hours of incubation. After denaturing/fixing cells on the plate, an anti-BrdU antibody was added thereto and a substrate was added after an hour to measure a color reaction using an ELISA spectraMax reader (Molecular Devices, Sunnyvale, Calif.) at 370 nm. Media was used as a negative control, and an antibody 5D5 (ATCC Cat. # HB11895 separated from hybridoma cells and purified) well known as an agonist was used as a positive control.
Background: Dividing cells build labelled thymidine or BrdU into new DNA.

The test system of another assay is U87MG brain cancer cells. Nature of the assay: U87MG brain cancer mouse xenograft model. As to conditions: 0.2 mg/kg-10 mg/kg, every 10 days, 3 doses. In kind it is in vivo. As to the method: as §1, §2
Another assay deals with T1, c-Met in MKN45 cells (Homo sapiens, UniProt P08581).
T1 construct: MKN45 gastric cancer cells on which c-Met is expressed; endogenous in cells; host or cells: MKN45 gastric cancer cells (JCRB)
The assay is described as follows: Degree of degradation of c-Met (total c-Met ELISA). In kind it is cell-based. The following applies: 5 ug/ml, 24 hours. As to the method:
In order to identify anti-cancer effects of the 4 types of antibodies having improved affinities, as prepared in Example 5, the degree of degradation of c-Met bound to the antibodies was evaluated. A relative total amount of c-Met was obtained by measuring the change in the total amount of c-Met after the antibody binds to c-Met to degrade c-Met via internalization, and thus the efficacy of the antibody was evaluated.
MKN45 cells (2×10^5 cells/ml) and each of the antibodies (5 ug/ml) were simultaneously introduced to a 96-well plate and incubated for 24 hours. Then, lysis of the cells treated with antibodies was performed and the change in the total amount of c-Met was measured using a Human total HGF R/c-Met ELISA KIT (R&D systems, DYC358) and analyzed.
In order to identify anti-cancer effects of the 3 types of antibodies having improved affinities, as prepared in Example 11, the degree of degradation of c-Met bound to the antibody was evaluated. MKN45 cells (2×10^5 cells/ml) and each of the antibodies (5 ug/ml) were simultaneously introduced to a 96-well plate and incubated for 24 hours. Then, lysis of the cells treated with antibodies was performed and a change of the total amount of c-Met was measured using a Human total HGF R/c-Met ELISA KIT (R&D systems, DYC358) and analyzed.
Background: An ELISA detects its analyte on a solid surface through an enzyme-linked reagent.

Assay [3] relates to Akt phosphorylation in Caki-1 cells. Nature of the assay: Akt phosphorylation (phospho-AKT1 Ser473 sandwich ELISA). It is filed as cell-based. As to conditions: 5 ug/ml, 30 minutes. An excerpt:
Cellular processes regulated by Akt include cell proliferation, cell survival, cell size control, and response to nutrient availability, intermediary metabolism, angiogenesis, and tissue invasion. All these processes represent characteristics of cancer and many oncoproteins and tumor suppressors intersect in the Akt pathway, finely regulating cellular functions at the interface of signal transduction and classical metabolic regulation. Thus, as the content of phosphorylated Akt that is an active form increases, the activity of cancer cells increases. Here, the degree of inhibiting Akt phosphorylation by the 4 types of antibodies having improved affinities was evaluated.
To compare agonism of the 4 types of antibodies having improved affinities, as prepared in Example 5, Caki-1 cells (Korean Cell Line Bank) were used to confirm the degree of Akt phosphorylation. Mouse IgG was used as a negative control, and antibody 5D5 (a known agonist) was used as a positive control.
2×10^5 cells/ml of Caki-1 cells were introduced to a 96-well plate, and after 24 hours, each of 5 ug/ml of the antibodies was treated in serum free medium for 30 minutes. Lysis of the cells treated with the antibodies was performed and the degree of Akt phosphorylation was measured using a PathScan phospho-AKT1 (Ser473) chemiluminescent Sandwich ELISA kit (Cell Signaling, cat. no #7134S). […]

A word on the koff: it is a measure of how fast the partners let go of each other. Higher therefore signals fast dissociation. For orientation: kon means a measure of how fast the partners come together. A low value points to slow association.

human c-Met protein, sequence (P08581 25-1390): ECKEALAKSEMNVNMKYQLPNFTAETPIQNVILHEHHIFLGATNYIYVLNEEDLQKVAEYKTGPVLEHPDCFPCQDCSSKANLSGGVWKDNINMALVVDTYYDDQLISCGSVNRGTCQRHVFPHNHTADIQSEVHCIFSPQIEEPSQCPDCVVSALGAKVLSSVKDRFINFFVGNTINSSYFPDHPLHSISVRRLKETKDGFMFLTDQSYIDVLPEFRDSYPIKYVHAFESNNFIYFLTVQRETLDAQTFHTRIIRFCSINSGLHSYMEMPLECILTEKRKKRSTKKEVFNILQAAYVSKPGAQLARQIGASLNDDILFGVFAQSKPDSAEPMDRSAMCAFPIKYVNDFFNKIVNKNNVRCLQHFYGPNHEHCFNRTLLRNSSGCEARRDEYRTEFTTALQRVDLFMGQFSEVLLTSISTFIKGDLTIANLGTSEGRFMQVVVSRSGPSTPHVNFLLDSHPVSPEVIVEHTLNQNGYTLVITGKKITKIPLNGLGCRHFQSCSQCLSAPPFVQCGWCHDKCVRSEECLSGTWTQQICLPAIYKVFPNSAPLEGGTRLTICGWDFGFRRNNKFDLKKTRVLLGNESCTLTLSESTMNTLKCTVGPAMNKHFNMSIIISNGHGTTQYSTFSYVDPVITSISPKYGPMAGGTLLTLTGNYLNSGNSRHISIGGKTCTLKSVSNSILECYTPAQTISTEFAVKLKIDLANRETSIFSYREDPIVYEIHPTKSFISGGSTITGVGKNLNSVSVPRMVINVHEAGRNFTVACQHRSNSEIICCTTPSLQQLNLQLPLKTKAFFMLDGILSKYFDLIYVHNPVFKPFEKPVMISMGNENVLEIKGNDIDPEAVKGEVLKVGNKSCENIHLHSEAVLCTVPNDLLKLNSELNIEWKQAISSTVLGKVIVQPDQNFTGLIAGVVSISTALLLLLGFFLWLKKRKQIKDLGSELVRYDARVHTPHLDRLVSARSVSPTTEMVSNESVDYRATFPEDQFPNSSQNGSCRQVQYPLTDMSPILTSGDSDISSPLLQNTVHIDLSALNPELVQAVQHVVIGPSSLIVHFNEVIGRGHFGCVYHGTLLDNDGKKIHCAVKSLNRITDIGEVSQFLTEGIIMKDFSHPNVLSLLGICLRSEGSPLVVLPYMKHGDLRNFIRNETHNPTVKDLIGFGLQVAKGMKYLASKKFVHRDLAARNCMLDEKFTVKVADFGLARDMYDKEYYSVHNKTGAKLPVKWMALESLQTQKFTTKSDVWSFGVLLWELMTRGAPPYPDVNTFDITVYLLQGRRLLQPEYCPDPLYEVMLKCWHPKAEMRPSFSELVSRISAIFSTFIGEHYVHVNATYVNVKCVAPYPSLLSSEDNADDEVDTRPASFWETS
T1 sequence (P08581 25-1390): as above

B1: huAbF46-H4-A1: affinity-improved huAbF46 IgG with U6-HC7 hinge, light chain from clone L3-1 (CDR-L3 SEQ ID NO: 13) (antibody)
heavy: EVQLVESGGGLVQPGGSLRLSCAASGFTFTDYYMSWVRQAPGKGLEWLGFIRNKANGYTTEYSASVKGRFTISRDNSKNTLYLQMNSLRAEDTAVYYCARDNWFAYWGQGTLVTVSSASTKGPSVFPLAPSSKSTSGGTAALGCLVKDYFPEPVTVSWNSGALTSGVHTFPAVLQSSGLYSLSSVVTVPSSSLGTQTYICNVNHKPSNTKVDKKVEPKSCDCH[left out - human IgG1 Fc]
light: DIQMTQSPSSLSASVGDRVTITCKSSQSLLASGNQNNYLAWHQQKPGKAPKMLIIWASTRVSGVPSRFSGSGSGTDFTLTISSLQPEDFATYYCQQSYSRPYTFGQGTKVEIKRTVAAPSVFIFPPSDEQLKSGTASVVCLLNNFYPREAKVQWKVDNALQSGNSQESVTEQDSKDSTYSLSSTLTLSKADYEKHKVYACEVTHQGLSSPVTKSFNRGEC
In the assay with human c-Met protein, B1 came in with a dissociation rate constant (koff) of 4.53e-05 s⁻¹ and a kon of 739000 M⁻¹ s⁻¹. Moreover, the “tumor growth inhibiting effect (tumor volume)” value in assay [1] is “dose-dependent tumor growth inhibiting effects”. Besides, the “safety improved (agonism side effects reduced) in BrdU assay” value in assay [2] was 25%. In addition, the “tumor growth inhibiting effect (tumor volume)” value in the assay on U87MG brain cancer cells is on record as “dose-dependent tumor growth inhibiting effects”. In addition, the “increase of degree of degradation of c-Met compared to cells treated with huAbF46” value with c-Met in MKN45 cells is listed as “about 37%”. Besides, the “degree of Akt phosphorylation relative to huAbF46 (before affinity was improved)” value in assay [3] was “about 49%”.
